# The campaign covered roughly 310,000 compounds. About 14,000 (4.5%) showed an effect of 50% or more. Effects have a minus sign here. This is one part of the list.
# Biological target: human ether-à-go-go-related gene (hERG) potassium channel (human, UniProt Q12809)
# Assay: primary screen, population patch clamp on CHO cells stably expressing hERG
# 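Note: peak tail current of the secondary pulse compared with the same well before compound.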
# human ether-à-go-go-related gene (hERG) potassium channel, sequence (Q12809 whole entry, looked up): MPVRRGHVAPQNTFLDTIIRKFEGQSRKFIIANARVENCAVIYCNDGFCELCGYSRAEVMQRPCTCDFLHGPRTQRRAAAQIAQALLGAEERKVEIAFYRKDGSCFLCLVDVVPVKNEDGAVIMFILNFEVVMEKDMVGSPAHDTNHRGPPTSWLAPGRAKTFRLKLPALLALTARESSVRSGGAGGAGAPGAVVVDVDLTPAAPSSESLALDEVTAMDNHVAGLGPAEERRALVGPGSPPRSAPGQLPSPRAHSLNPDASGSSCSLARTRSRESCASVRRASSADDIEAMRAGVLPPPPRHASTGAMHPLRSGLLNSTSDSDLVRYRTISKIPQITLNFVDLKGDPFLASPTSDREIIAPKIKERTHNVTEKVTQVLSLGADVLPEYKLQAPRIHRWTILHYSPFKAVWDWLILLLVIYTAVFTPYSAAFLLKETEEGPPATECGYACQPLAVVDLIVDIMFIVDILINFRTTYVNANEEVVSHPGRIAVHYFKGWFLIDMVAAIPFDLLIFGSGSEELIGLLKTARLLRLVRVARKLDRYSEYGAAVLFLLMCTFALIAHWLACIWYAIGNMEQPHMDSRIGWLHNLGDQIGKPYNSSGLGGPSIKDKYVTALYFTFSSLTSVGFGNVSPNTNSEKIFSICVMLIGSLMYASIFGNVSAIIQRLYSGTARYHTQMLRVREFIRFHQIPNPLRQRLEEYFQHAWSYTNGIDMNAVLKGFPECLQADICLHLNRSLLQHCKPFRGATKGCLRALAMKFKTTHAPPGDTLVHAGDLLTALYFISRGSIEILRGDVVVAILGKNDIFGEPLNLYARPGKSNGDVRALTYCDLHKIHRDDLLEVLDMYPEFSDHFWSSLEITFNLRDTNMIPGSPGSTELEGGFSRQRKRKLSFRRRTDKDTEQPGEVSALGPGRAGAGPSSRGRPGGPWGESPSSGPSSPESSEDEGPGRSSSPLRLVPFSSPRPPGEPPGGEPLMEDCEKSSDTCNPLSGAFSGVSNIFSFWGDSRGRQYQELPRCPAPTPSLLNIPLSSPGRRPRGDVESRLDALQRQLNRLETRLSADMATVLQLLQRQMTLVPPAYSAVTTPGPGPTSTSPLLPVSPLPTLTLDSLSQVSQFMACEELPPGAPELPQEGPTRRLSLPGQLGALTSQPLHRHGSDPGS
row,Compound,"hERG current change (%, negative = inhibition) at 10uM [%]"
1,O=C(Nc1ccc(Cl)cc1)C1CCCN(S(=O)(=O)c2cnc[nH]2)C1 (stereo not shown),16.6
2,c1ccc(OCc2nnc(-c3ccccc3)o2)cc1,9.03
3,C/C(=N\NC(=O)c1ccc2c(c1)OCCO2)c1ccccc1,3.93
4,CCCCN(CC)CCCNC(=O)c1csc2c1CCCCC2,43
5,C=CCn1c(C)cc(C(=O)CN2C(=O)NC3(CCCc4ccccc43)C2=O)c1C (stereo not shown),2.9
6,Fc1cccc(NC(=S)NNc2ccccc2)c1,15.1
7,COc1ccc(C(=O)C2CCCN(Cc3ccon3)C2)cc1OC (stereo not shown),11.2
8,COc1ccc(CS(=O)(=O)c2ncn[nH]2)cc1,-17.8
9,Cc1cc2oc(=O)cc(CN(C)Cc3cccc(F)c3)c2cc1C,10.6
10,COc1cccc(-c2ccc(SCC(=O)NCCc3ccccc3)nn2)c1,-41.7
11,Cc1ccc(S(=O)(=O)N2CCC(C(=O)N3CCC(C(=O)NCC4CCCO4)CC3)CC2)cc1 (stereo not shown),-7.13
12,CCOc1cc(-c2cc(-c3ccc(C)o3)nc(N)c2C#N)ccc1O,-10.2
13,CCC1C=CC=CC[C@H](C)[C@@H](O)[C@](C)(O)C(=O)[C@@H](C)[C@H](O)[C@@H](C)C(=O)[C@H](C)[C@@H](O)[C@H](C)C=CC(=O)OC2[C@@H](C)C(CC1)OC1(CC[C@@H](C)C(C[C@H](C)O)O1)[C@@H]2C (stereo partly shown),16.8
14,N#CCCN(C(=O)CSc1nnc(-c2ccncc2)n1C1CC1)c1ccccc1,-2.57
15,Cc1ccc(S(=O)(=O)CCC(=O)NCc2ccccc2F)cc1,-1.66
16,CCc1ccc(OCCCCN(C)Cc2ccccc2)cc1.O=C(O)C(=O)O,-47.7
17,Cn1nc(C(=O)N2CCN(S(=O)(=O)/C=C/c3ccccc3)CC2)c2ccccc2c1=O,-65.1
18,O=C(NCc1cccs1)c1ccccc1,4.9
19,O=C1C(Cl)=C(N2CCOCC2)C(=O)N1c1cccc(Cl)c1,-1.92
20,CCN(CCCNC(=O)C1CCN(S(=O)(=O)c2cccc3nonc23)CC1)Cc1ccccc1,-57.2
21,Cc1ccc(S(=O)(=O)CCC(=O)OC(C)C(=O)NC2CCCCC2C)cc1 (stereo not shown),-1.21
22,N#Cc1c(NC(=O)COC(=O)c2ccc(F)cc2)sc2c1CCC2,-13.7
23,COc1cc(C(=O)NCCOc2ccc(C)c(C)c2)cc(OC)c1OC,-10.7
24,C/C(=N\Nc1ccc(S(N)(=O)=O)cc1[N+](=O)[O-])c1cccs1,25.7
25,c1ccc(CN2CCOCCOCCOCCOCCOCCOCC2)cc1,-3.44
26,CCCCCn1c(=O)[nH]c2cc(C(=O)NCCCN3CCCCC3)ccc2c1=O,-33.5
27,Nc1nc(SCc2ccccc2Cl)[nH]c(=O)c1-c1ccccc1,14.2
28,CCCC(=O)C1=C(N2CCCC2)CC(C)(C)C(C(=O)OC)C1=O (stereo not shown),7.45

row,Compound,"hERG current change (%, negative = inhibition) at 10uM [%]"
1,Cc1cc(NC(=O)c2sc3ccccc3c2O)no1,17.2
2,CCCN(CCC)CCCNC(=S)Nc1ccc2nc(N3CCN(C)CC3)cc(C)c2c1,8.86
3,O=C(O)CCc1nnc(SCC(=O)Nc2ccc(Cl)c(C(F)(F)F)c2)[nH]c1=O,19.8
4,COc1ccc(NC(C)=[N+](C)CCNS(=O)(=O)c2ccc(Cl)cc2)cc1Cl.[I-],-69.5
5,Cc1csc(C(C)NC(=O)c2ccc(OC3CCN(CCc4ccccc4)CC3)cc2)n1 (stereo not shown),-66.2
6,Cc1cc(-c2ccccc2)[nH]c(=O)c1C#N,9.63
7,O=[N+]([O-])c1ccc(N2CCN(c3cccc(Cl)c3)CC2)nc1,14
8,CC(=O)Oc1ccc(CC(C(=O)O)N2C(=O)c3ccccc3C2=O)cc1 (stereo not shown),16.2
9,O=c1c2ccccc2oc2ccc(-c3ccc4[nH]ccc4c3)cc12,-2.53
10,Cn1c(C(=O)Nc2ccc(Cl)cc2)cc2cc(Cl)ccc21,-7.13
11,COc1ccc(C(=O)n2nc(-c3ccc(Cl)cc3)nc2N)cc1OC,8.57
12,COc1cc(NC(=O)c2noc(C)c2[N+](=O)[O-])c(OC)cc1Cl,7.72
13,Cc1cccc(OCC(=O)Nc2ccc(N3CCCC3)cc2)c1C,14.3
14,O=c1[nH]c(=O)n(-c2cccc3ccccc23)c(O)c1/C=N/N1CCCCCC1,-4.13
15,Cc1cc(C)c2sc(C)[n+](CCCS(=O)(=O)[O-])c2c1,15.6
16,Cc1c(C(=O)N2CCCCC2C)sc2ncnc(N3CCc4ccccc4C3)c12 (stereo not shown),-33.8
17,O=C(NC1CC1)C1CCN(C2CCN(C(=O)c3ccc(C(F)(F)F)cc3)CC2)CC1,-56.4
18,CC1(C)OC(=O)N(c2cccnc2)C1(C)O (stereo not shown),11.3
19,COc1ccccc1/C=N/NC(=O)CSc1ccc2ccccc2n1,24.6
20,CCOC(=O)C1=C(COC(=O)C(C)(C)Oc2ccc(Cl)cc2)NC(=O)NC1C (stereo not shown),-19.3
21,Cc1nc2scc(-c3ccc(C(C)(C)C)cc3)c2c(=O)n1N,4.74
22,CCc1c(O)nc(SCC(=O)Nc2ccccc2OC)[nH]c1=O,13.1
23,N#Cc1nc(-c2ccccc2)oc1N1CCN(C(=O)c2ccco2)CC1,-75.7
24,COc1ccccc1C1=NOC(Cn2c(NCC3CCCO3)nc3c2c(=O)n(C)c(=O)n3C)C1 (stereo not shown),7.71
25,CCN(c1ccccc1)S(=O)(=O)c1ccc(Cl)c(NC(=O)Nc2ccc(Cl)cc2C#N)c1,-3.67
26,COc1ccc(-c2noc(N3CCCC(C(=O)Nc4cc(F)ccc4F)C3)n2)cc1 (stereo not shown),-10.5
27,CC(NC(=O)c1ccc(CS(C)(=O)=O)cc1)c1cccc2ccccc12 (stereo not shown),10.1

# Reference: article PMC4336329 (PLoS ONE, 2015)
